Consider six molecules from article PMC11964227, “Critical functions and key interactions mediated by the RNase E scaffolding domain in Pseudomonas aeruginosa” (PLOS Genetics, 2025).

Chains of the proteins cited; added tags and fusions are not shown. Lines headed by an entry give the natural chain unless they say otherwise; changes in a name come on top. Residues count along the entry.
UniProt Q9HZM8: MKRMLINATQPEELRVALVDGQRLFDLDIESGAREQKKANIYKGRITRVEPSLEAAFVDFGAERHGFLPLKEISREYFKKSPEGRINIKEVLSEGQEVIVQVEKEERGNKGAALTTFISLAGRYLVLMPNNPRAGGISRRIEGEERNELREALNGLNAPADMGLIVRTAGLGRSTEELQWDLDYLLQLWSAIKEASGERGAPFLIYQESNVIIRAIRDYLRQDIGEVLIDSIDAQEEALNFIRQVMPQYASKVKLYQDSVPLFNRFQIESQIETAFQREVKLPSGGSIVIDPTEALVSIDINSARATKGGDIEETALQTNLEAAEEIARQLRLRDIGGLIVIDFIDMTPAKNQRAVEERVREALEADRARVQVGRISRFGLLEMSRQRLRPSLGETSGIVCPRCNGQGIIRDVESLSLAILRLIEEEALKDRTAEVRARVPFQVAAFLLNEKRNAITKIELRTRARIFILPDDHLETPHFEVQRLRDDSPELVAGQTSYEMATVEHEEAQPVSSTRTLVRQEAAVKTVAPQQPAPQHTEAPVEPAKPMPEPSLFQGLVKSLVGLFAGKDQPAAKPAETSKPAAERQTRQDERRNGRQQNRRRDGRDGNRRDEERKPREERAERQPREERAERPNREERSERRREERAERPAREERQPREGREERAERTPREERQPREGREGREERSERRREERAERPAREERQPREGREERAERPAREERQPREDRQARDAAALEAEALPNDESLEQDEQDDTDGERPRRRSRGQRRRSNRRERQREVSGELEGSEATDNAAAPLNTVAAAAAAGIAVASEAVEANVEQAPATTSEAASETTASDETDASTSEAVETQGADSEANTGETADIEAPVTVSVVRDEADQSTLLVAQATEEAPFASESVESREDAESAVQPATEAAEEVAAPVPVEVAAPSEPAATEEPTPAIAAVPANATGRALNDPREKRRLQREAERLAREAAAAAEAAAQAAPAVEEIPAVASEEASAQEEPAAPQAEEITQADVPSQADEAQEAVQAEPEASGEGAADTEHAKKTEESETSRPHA
T18-RNase E^1-1025: residues 1-1025 of Q9HZM8
T18-RNase E^1-793: residues 1-793 of Q9HZM8
T18-RNase E^1-733: residues 1-733 of Q9HZM8
Flag-RNase E^1-588: residues 1-588 of Q9HZM8
T18-RNase E^1-529: residues 1-529 of Q9HZM8
T18-RNase E^733-793: residues 733-793 of Q9HZM8
T18-RNase E^733-761: residues 733-761 of Q9HZM8
T18-RNase E^762-793: residues 762-793 of Q9HZM8
T18-RNase E^940-1057: residues 940-1057 of Q9HZM8

Results are given in words; binding and its absence hold for the method and conditions named. Some binding calls cover weakened binding; strength is not graded here. For some assays here: Sequences can lack the tags named with a protein.

The target of test [1] is T18-RNase E^1-529 (P. aeruginosa) (UniProt Q9HZM8). The experiment in a line: two-hybrid; adenylate-cyclase-based bacterial two-hybrid in E. coli BTH101 (T18 and T25 fusions); MacConkey agar with maltose and IPTG, 30°C then room temperature; β-galactosidase activity with ONPG.
For test [2], the target named is T18-RNase E^940-1057 (P. aeruginosa) (UniProt Q9HZM8). Described as above.
Test [3] has as its target T18-RNase E^1-1025 (P. aeruginosa) (UniProt Q9HZM8). The description is as above.
The target in test [4] is Flag-RNase E^1-529 (P. aeruginosa) (UniProt Q9HZM8). Nature of the test: pull-down; purified Flag-tagged RNase E proteins (20-25 µg) immobilised on anti-Flag M2 magnetic beads, 5 µg of PNPase or RhlB in 100 µL buffer H (50 mM Tris-HCl pH 8.0, 150 mM NaCl, 0.01% Triton X-100), 1 hour at 4 °C; SDS-PAGE, Coomassie Blue; both purified.
The target in test [5] is Flag-RNase E^1-588 (P. aeruginosa) (UniProt Q9HZM8). The test is described as above.
In test [6] the target is T18-RNase E^1-793 (P. aeruginosa) (UniProt Q9HZM8). The experiment in a line: two-hybrid; adenylate-cyclase-based bacterial two-hybrid in E. coli BTH101 (T18 and T25 fusions); MacConkey agar with maltose and IPTG, 30°C then room temperature; β-galactosidase activity with ONPG.
Test [7] deals with T18-RNase E^733-793 (P. aeruginosa) (UniProt Q9HZM8). Described as above.
Test [8] has as its target T18-RNase E^1-733 (P. aeruginosa) (UniProt Q9HZM8). The description is as above.
Test [9] has as its target T18-RNase E^733-761 (P. aeruginosa) (UniProt Q9HZM8). The test is described as above.
Test [10] addresses T18-RNase E^762-793 (P. aeruginosa) (UniProt Q9HZM8). The test is described as above.
Test [11] deals with Flag-RNase E^1-588 (P. aeruginosa) (UniProt Q9HZM8). The experiment in a line: pull-down; purified Flag-tagged RNase E^1-1057 or RNase E^1-588 on anti-Flag magnetic beads (50 µL), purified ArcB, in presence or absence of 100 ng/µl of total P. aeruginosa RNA; elution with 3X FLAG Peptide; both purified.
The target of test [12] is Flag-RNase E^1-1057 (P. aeruginosa) (UniProt Q9HZM8). The test is described as above.

B1: T25-PNPase (enzyme, P. aeruginosa, UniProt Q9HV59 1-701, looked up)
chain: MNPVTKQFQFGQSTVTLETGRIARQATGAVLVTMDDVSVLVTVVGAKSPAEGRDFFPLSVHYQEKTYAAGRIPGGFFKREGRPSEKETLTSRLIDRPIRPLFPEGFMNEVQVVCTVVSTNKKSDPDIAAMIGTSAALAISGIPFAGPIGAARVGFHPEIGYILNPTYEQLQSSSLDMVVAGTEDAVLMVESEADELTEDQMLGAVLFAHDEFQAVIRAVKELAAEAGKPAWDWKAPAENTVLVNAIKAELGEAISQAYTITIKQDRYNRLGELRDQAVALFAGEEEGKFPASEVKDVFGLLEYRTVRENIVNGKPRIDGRDTRTVRPLRIEVGVLGKTHGSALFTRGETQALVVATLGTARDAQLLDTLEGERKDAFMLHYNFPPFSVGECGRMGSPGRREIGHGRLARRGVAAMLPTQDEFPYTIRVVSEITESNGSSSMASVCGASLALMDAGVPVKAPVAGIAMGLVKEGEKFAVLTDILGDEDHLGDMDFKVAGTDKGVTALQMDIKINGITEEIMEIALGQALEARLNILGQMNQVIAKPRAELSENAPTMLQMKIDSDKIRDVIGKGGATIRGICEETKASIDIEDDGSVKIYGETKEAAEAAKLRVLAITAEAEIGKIYVGKVERIVDFGAFVNILPGKDGLVHISQISDKRIDKVTDVLQEGQEVKVLVLDVDNRGRIKLSIKDVAAAEASGV
notes: Polyribonucleotide phosphorylase (PNPase), P. aeruginosa, pnp; source: bacterial two-hybrid fusion (pKT25), E. coli BTH101
Take B1: the binding result in test [1] is given as “no binding”; in test [2], “binds”; in [3], “binds”.

B2: His10Smt3-tagged PNPase (enzyme, UniProt Q9HV59 1-701)
chain: MNPVTKQFQFGQSTVTLETGRIARQATGAVLVTMDDVSVLVTVVGAKSPAEGRDFFPLSVHYQEKTYAAGRIPGGFFKREGRPSEKETLTSRLIDRPIRPLFPEGFMNEVQVVCTVVSTNKKSDPDIAAMIGTSAALAISGIPFAGPIGAARVGFHPEIGYILNPTYEQLQSSSLDMVVAGTEDAVLMVESEADELTEDQMLGAVLFAHDEFQAVIRAVKELAAEAGKPAWDWKAPAENTVLVNAIKAELGEAISQAYTITIKQDRYNRLGELRDQAVALFAGEEEGKFPASEVKDVFGLLEYRTVRENIVNGKPRIDGRDTRTVRPLRIEVGVLGKTHGSALFTRGETQALVVATLGTARDAQLLDTLEGERKDAFMLHYNFPPFSVGECGRMGSPGRREIGHGRLARRGVAAMLPTQDEFPYTIRVVSEITESNGSSSMASVCGASLALMDAGVPVKAPVAGIAMGLVKEGEKFAVLTDILGDEDHLGDMDFKVAGTDKGVTALQMDIKINGITEEIMEIALGQALEARLNILGQMNQVIAKPRAELSENAPTMLQMKIDSDKIRDVIGKGGATIRGICEETKASIDIEDDGSVKIYGETKEAAEAAKLRVLAITAEAEIGKIYVGKVERIVDFGAFVNILPGKDGLVHISQISDKRIDKVTDVLQEGQEVKVLVLDVDNRGRIKLSIKDVAAAEASGV
For B2, the binding result in [4] and in [5] was “no binding (tested: 5 µg of PNPase in 100 µL)” in each case.

B3: T25-RhlB (enzyme, P. aeruginosa, UniProt Q9HXE5 1-397, looked up)
chain: MVEPQEGKTRFHDFNLAPSLMHAIHDLGFPYCTPIQAQVLGFTLRGQDAIGRAQTGTGKTAAFLISIITQLLQTPPPKERYMGEPRALIIAPTRELVVQIAKDAAALTKYTGLNVMTFVGGMDFDKQLKQLEARFCDILVATPGRLLDFNQRGEVHLDMVEVMVLDEADRMLDMGFIPQVRQIIRQTPHKGERQTLLFSATFTDDVMNLAKQWTVDPAIVEIEPENVASDTVEQHVYAVAGSDKYKLLYNLVAQNNWERVMVFANRKDEVRRIEERLTKDGISAAQMSGDVPQHKRIRTLEGFREGKIRVLVATDVAGRGIHIDGISHVINFTLPEDPDDYVHRIGRTGRAGASGTSISFAGEDDAFALPPIEELLGRKITCEMPPAELLKPVPRKH
notes: RNA helicase RhlB, P. aeruginosa; source: bacterial two-hybrid fusion (pKT25), E. coli BTH101
With B3, the binding result in test [6] is “binds”; in [7], “binds”; in test [8] it was “no binding”; in test [9] it was “no binding”; in test [10], “no binding”.

B4: His10Smt3-tagged RhlB (enzyme, UniProt Q9HXE5 1-397)
chain: MVEPQEGKTRFHDFNLAPSLMHAIHDLGFPYCTPIQAQVLGFTLRGQDAIGRAQTGTGKTAAFLISIITQLLQTPPPKERYMGEPRALIIAPTRELVVQIAKDAAALTKYTGLNVMTFVGGMDFDKQLKQLEARFCDILVATPGRLLDFNQRGEVHLDMVEVMVLDEADRMLDMGFIPQVRQIIRQTPHKGERQTLLFSATFTDDVMNLAKQWTVDPAIVEIEPENVASDTVEQHVYAVAGSDKYKLLYNLVAQNNWERVMVFANRKDEVRRIEERLTKDGISAAQMSGDVPQHKRIRTLEGFREGKIRVLVATDVAGRGIHIDGISHVINFTLPEDPDDYVHRIGRTGRAGASGTSISFAGEDDAFALPPIEELLGRKITCEMPPAELLKPVPRKH
On to B4, for which the binding result in [4] is on record as “no binding (tested: 5 µg of RhlB in 100 µL)”.

B5: T25-ArcB (enzyme, UniProt P08308 1-336)
chain: MAFNMHNRNLLSLMHHSTRELRYLLDLSRDLKRAKYTGTEQQHLKRKNIALIFEKTSTRTRCAFEVAAYDQGANVTYIDPNSSQIGHKESMKDTARVLGRMYDAIEYRGFKQEIVEELAKFAGVPVFNGLTDEYHPTQMLADVLTMREHSDKPLHDISYAYLGDARNNMGNSLLLIGAKLGMDVRIAAPKALWPHDEFVAQCKKFAEESGAKLTLTEDPKEAVKGVDFVHTDVWVSMGEPVEAWGERIKELLPYQVNMEIMKATGNPRAKFMHCLPAFHNSETKVGKQIAEQYPNLANGIEVTEDVFESPYNIAFEQAENRMHTIKAILVSTLADI
With B5, in [1], the binding entry is recorded as “no binding”.

B6: His10Smt3-tagged ArcB (enzyme, UniProt P08308 1-336)
chain: MAFNMHNRNLLSLMHHSTRELRYLLDLSRDLKRAKYTGTEQQHLKRKNIALIFEKTSTRTRCAFEVAAYDQGANVTYIDPNSSQIGHKESMKDTARVLGRMYDAIEYRGFKQEIVEELAKFAGVPVFNGLTDEYHPTQMLADVLTMREHSDKPLHDISYAYLGDARNNMGNSLLLIGAKLGMDVRIAAPKALWPHDEFVAQCKKFAEESGAKLTLTEDPKEAVKGVDFVHTDVWVSMGEPVEAWGERIKELLPYQVNMEIMKATGNPRAKFMHCLPAFHNSETKVGKQIAEQYPNLANGIEVTEDVFESPYNIAFEQAENRMHTIKAILVSTLADI
Consider B6, for which the binding entry in test [11] and in test [12] was “no binding” each time.
